Screen size: about 52,000 compounds; about 4,300 (8.3%) were called active. Rule as the data show it: active = survival mostly below about 52% (no sharp cut-off); inactive = mostly above about 56%. The list shows a part of the results.
What follows are compounds tested on DeltatarO mutant (assay: growth inhibition of S. aureus wild type versus tarO mutant, primary screen, teichoic acid synthesis inhibitors, RN4220, OD600 (AID 463173)). Details: OD600, 18 h, active compounds read low, screened at 18.75 µg/mL (by protocol).

SMILES	survival
Cc1c(C(=O)Nc2ccc(F)c(F)c2)oc2ccc(S(=O)(=O)N3CCC4(CC3)OCCO4)cc12	inactive: 85%
CC(=O)Nc1ccc(NS(=O)(=O)c2ccc(Cl)s2)cc1	inactive: 57%
Nc1ccc2c(c1)ncn2CCO	inactive: 88%
CCCCc1ccc(NS(=O)(=O)c2ccc(N3CCCCS3(=O)=O)cc2)cc1	inactive: 99%
CCOc1ccc(C(=O)c2cn(Cc3ccccc3)c3c(F)cc(F)cc3c2=O)cc1	inactive: 78%
COc1ccc(OC)c(NC(=O)c2cnc(N3CCCC3)nc2C)c1	inactive: 70%
CCNC(=S)N1CCC(NC(=O)C23CC4CC(CC(C4)C2)C3)CC1	inactive: 80%
Cc1c(C)n(C)c2ccc(C(=O)NCCc3ccc(Cl)cc3)cc12	inactive: 78%
COC(=O)c1c(C)oc2ccc(N(C(=O)Oc3ccccc3)S(=O)(=O)c3ccc(C(C)(C)C)cc3)cc12	inactive: 85%
O=C(NCCc1ccc(Cl)cc1)c1ccc2c(c1)N(Cc1c(F)cccc1Cl)C(=O)CS2	active: 44%
Cc1ccc(NC(=O)C2CCCN(S(=O)(=O)c3c(C)n[nH]c3C)C2)cc1Cl (stereo not drawn)	inactive: 83%
CCSc1nnc2c(n1)OC(c1sccc1C)N(C(C)=O)c1ccccc1-2 (stereo not drawn)	inactive: 53%
CC(CC(=O)NC1CCCC1)c1ccccc1 (stereo not drawn)	inactive: 90%
O=C(CSc1nc2c([nH]c3ccccc32)c(=O)n1-c1ccc(F)cc1)NCc1ccco1	inactive: 81%
CC1=C(C(=O)Nc2cc(Cl)ccc2C)C(c2ccco2)n2ncnc2N1 (stereo not drawn)	inactive: 92%
O=C(NCc1cccc(F)c1)c1ccc2nc(N3CCCCC3)sc2c1	inactive: 85%
CCOC(=O)C1CCCN(S(=O)(=O)c2cc3c(cc2C)NC(=O)CO3)C1 (stereo not drawn)	inactive: 89%
Cc1ccc(OCC(=O)Nc2ccc3nc(SCC(N)=O)sc3c2)cc1	inactive: 73%
COc1ccc(Cn2c(=O)c3oc4ccccc4c3n(Cc3cccc(F)c3)c2=O)cc1	inactive: 77%
COc1ccccc1N1CCN(CCCNC(=O)c2cnn(-c3ccc(C)c(C)c3)c2C2CCN(C(=O)OC(C)(C)C)CC2)CC1	inactive: 98%
Fc1ccc(-c2cc(C(F)(F)F)nc(NCc3ccccc3)n2)cc1	inactive: 85%
CCCCS(=O)(=O)c1oc(-c2ccc(F)cc2)nc1S(=O)(=O)c1ccccc1	active: 4%

SMILES	survival
O=C(c1ccc2c(c1)N(Cc1ccc(F)cc1)C(=O)c1ccccc1S2(=O)=O)N1CCN(c2ccccn2)CC1	inactive: 111%
COc1ccccc1CNC(=O)c1cnc2c(-c3ccccc3)c(C)nn2c1C	inactive: 96%
CCOC(=O)c1c(NC(=O)C(C)Sc2cn(CCNC(=O)c3ccccc3OC)c3ccccc23)sc2c1CCC2 (stereo not drawn)	inactive: 80%
COC(=O)c1sc2cccc(F)c2c1S(=O)(=O)NCc1ccc(Cl)cc1	inactive: 102%
Cc1ccc(-n2nc3ccc(NC(=O)Cc4ccc(Cl)cc4)cc3n2)cc1	inactive: 79%
COc1ccc(-c2noc(N3CCN(c4ccc(C)cc4)C(C)C3)n2)cc1OC (stereo not drawn)	inactive: 99%
Cc1ccc(CSc2ncc(Cl)c(C(=O)Oc3ccc(F)cc3)n2)cc1	inactive: 77%
CCC1Oc2ccc(C)cc2N(CC(=O)N(Cc2ccc(F)cc2)CC2CCCO2)C1=O (stereo not drawn)	inactive: 90%
CCOc1ccc(NC(=O)Cn2c(=O)n(CCCC(=O)NCc3ccc4c(c3)OCO4)c(=O)c3ccccc32)cc1	inactive: 90%
Cc1ccc(-c2noc(=O)n2CC(=O)Nc2ccc(S(=O)(=O)N3CCCC3)cc2)cc1	inactive: 89%
CCOC(=O)c1ccc2c(c1)[C@@H]1C=CC[C@@H]1[C@H](c1cccc(OC)c1OC)N2	active: -10%
Cc1cc(C)c2sc(N(Cc3cccnc3)C(=O)CCOc3ccccc3)nc2c1	inactive: 115%
CCCC(=O)C1=C(c2cccc(OC)c2)N(C(=O)CCC)n2c(C)nnc2S1	inactive: 85%
CCc1nn(CC(=O)N2CCN(c3ccc(Cl)cc3)CC2)c(=O)c2cc3occc3n12	inactive: 87%
CCn1c(=O)n(-c2cccc(Cl)c2)c(=O)c2sc3ccccc3c21	inactive: 112%
O=C(Nc1ccc(Cl)cc1)c1cc2nc(-c3ccc4c(c3)OCO4)cc(C(F)(F)F)n2n1	inactive: 83%
CC(=O)c1ccc(N2CCN(C(=O)c3cc4ccc5cccnc5c4[nH]3)CC2)cc1	inactive: 55%
COc1ccc(C(=O)Nc2ccccc2-c2nc(-c3ccc(OC)cc3)no2)cc1	inactive: 48%
O=C(c1cnc(N2CCCCC2)c2ccccc12)N1CCN(c2ccc(Cl)cc2)CC1	inactive: 83%
COc1ccc(CCN2CC(C(=O)NCCc3ccccc3)CC2=O)cc1OC (stereo not drawn)	inactive: 76%
O=C(CCC(=O)c1ccccc1)Nc1ccc(F)c(Cl)c1	inactive: 83%
COc1ccc(OC)c(/C=C(\C#N)c2nc3ccccc3c(=O)[nH]2)c1	inactive: 156%

SMILES	survival
Cc1cccc(NC(=O)C2CCCN(S(=O)(=O)c3ccc4c(c3)oc(=O)n4C)C2)c1 (stereo not drawn)	inactive: 70%
O=S(=O)(NCCS(=O)(=O)N1CCN(c2ccccc2)CC1)c1ccc(Cl)cc1	inactive: 89%
Cc1sc2c(c1C)c(=O)n(CCc1ccccc1)c(=O)n2Cc1ccc(F)cc1	inactive: 52%
Cc1ccc(C)c(S(=O)(=O)NCCc2csc(-c3ccc(Cl)cc3)n2)c1	inactive: 94%
COc1cc(OC)c(NC(=O)N2CCC(CN3CCOCC3)CC2)cc1Cl	inactive: 97%
CN1CCN(Cc2c(O)ccc3cc(-c4ccc(Cl)cc4)c(=O)oc23)CC1	inactive: 100%
CCc1cccc(NC(=O)CCc2c(C)nc3c(-c4ccccc4)c(C)nn3c2C)c1	inactive: 68%
CCN(C(=O)Cn1c(=O)oc2cc(S(=O)(=O)N3CCCCC3)ccc21)c1ccccc1	inactive: 62%
CC(C)NC(=O)c1ccc2c(c1)N(Cc1cccc(Cl)c1)C(=O)c1ccccc1S2=O (stereo not drawn)	inactive: 55%
CCc1ccccc1NS(=O)(=O)c1ccc2c(c1)CCCN2C(=O)C1CCC1	inactive: 98%
Cc1nn2c(=O)cc(COC(=O)c3ccccc3NC(=O)c3cccs3)nc2s1	inactive: 74%
COC(=O)c1sc2c(c1C)c(=O)n(-c1ccccc1)c(=O)n2CC(=O)Nc1cccc(C)c1	inactive: 67%
Cc1ccc(C)c(NC(=O)CCOc2ccccc2)c1	inactive: 77%
Cc1ccc2nc(-c3ccc(F)cc3)c(NC(C)(C)CC(C)(C)C)n2c1	active: 12%
Nc1cccc(NC(=O)CCC(=O)NCc2ccco2)c1	inactive: 68%
Cc1c(Cl)cccc1NC(=O)CSc1ccc(-c2ccccn2)nn1	inactive: 108%
COc1cccc(Nc2cc(C)nc3ccccc23)c1	inactive: 109%
COc1cccc(CNC(=O)c2c(C)oc3ncnc(N4CCOCC4)c23)c1	inactive: 87%
COc1ccc(N2CCN(C(=O)C3Cc4ccccc4N3C(C)=O)CC2)cc1 (stereo not drawn)	inactive: 82%
CCOc1cc(CNC(=O)C2CCN(c3nc4ccccc4[nH]3)CC2)cc(OCC)c1OCC	active: 20%
COc1cccc(CC(=O)Nc2ccc(-c3nc4ccccc4s3)cc2Cl)c1	inactive: 69%
Cc1cc(C)cc(N2CCn3c2nc2c3c(=O)n(C/C=C/c3ccccc3)c(=O)n2C)c1	inactive: 92%

SMILES	survival
Cc1cc(C)c2nc(N3CCCC(C(=O)NCc4ccccc4F)C3)sc2c1 (stereo not drawn)	inactive: 102%
Cc1ccc(C(=O)NC2CC(C)(C)NC(C)(C)C2)cc1	inactive: 64%
CCOC(=O)N1CCN(C(=O)Cc2cccc3ccccc23)CC1	inactive: 94%
CCn1c(=O)n(-c2ccc3c(c2)OCO3)c2nc(-c3cccc(OC)c3OC)nc(C(N)=O)c21	inactive: 92%
O=C1N/C(=N\S(=O)(=O)Cc2ccccc2)S/C1=C\c1ccco1	inactive: 78%
COc1ccc(N2CCN(C(=O)c3ccc4c(c3)N(Cc3cccc(Cl)c3)C(=O)c3ccccc3S4(=O)=O)CC2)cc1	inactive: 83%
Cc1ccccc1C(=O)Nc1cc2c(cc1N1CCCCC1)n(C)c(=O)n2C	inactive: 66%
O=C(NCc1cccc(Cl)c1)c1cc2c(s1)-c1ccccc1SC2	inactive: 64%
O=C(Cn1c(=O)n(-c2ccc(Cl)cc2)c(=O)c2c3c(sc21)CCCCC3)Nc1cccc(Cl)c1	inactive: 84%
Cc1ccc2cccc(NC(=O)c3cccc4c(Br)cccc34)c2n1	inactive: 134%
COc1cccc(CNS(=O)(=O)c2ccc3c(c2)CC(C)N3C(=O)C2CCC2)c1 (stereo not drawn)	inactive: 78%
CN(C)S(=O)(=O)c1ccc(/C(O)=C2\C(=O)C(=O)N(Cc3cccnc3)C2c2cccnc2)cc1 (stereo not drawn)	inactive: 104%
COc1ccc(C)cc1NC(=O)C(=O)NCC(c1cccnc1)N1CCN(c2ccccc2F)CC1 (stereo not drawn)	inactive: 52%
COc1cccc(NC(=O)C2CCN(S(=O)(=O)c3c(C)noc3C)CC2)c1	inactive: 102%
Cc1ccc(C(=O)COC(=O)c2cc(-c3cccs3)nc3ccccc23)cc1	inactive: 50%
CCc1cccc(NC(=O)Nc2cn(C)c(=O)c3ccccc23)c1	inactive: 88%
Cc1ccc(S(=O)(=O)c2cn(CC(=O)Nc3ccc(F)cc3)c3cc4c(cc3c2=O)OCO4)cc1	inactive: 72%
COc1ccc(-c2noc(CCC(=O)Nc3cccc(C)c3C)n2)cc1OC	inactive: 69%
CCc1ccccc1NC(=O)Cn1c(=O)n(-c2cccc(C)c2)c(=O)c2c1c1cc(OC)ccc1n2C	inactive: 72%
CC(C)OCCCNC(=O)Cc1ccc(NC(=O)N2CCCCc3ccccc32)cc1	inactive: 78%
CCOc1ccccc1N(C)C(=O)c1cc2c(s1)-c1ccccc1OC2	active: -2%
S=C(NCCN1CCCCC1)Nc1ccccc1	inactive: 82%

From PubChem BioAssay AID463173 (ICCB-Longwood Screening Facility, Harvard Medical School, 2010)
